Measured values from PubChem BioAssay AID488969 (Vanderbilt High Throughput Screening Facility, 2010).
The full ranking holds about 110,000 compounds; the median of “z-score” is about -0.1, and the highest 2% start at about 2. This is one part of the list. Active and inactive are the calls of the source.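 Rule for the calls: active = z-score in the third read window above 3 or below -3; inactive = the rest.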

The molecules below were run against Metabotropic glutamate receptor 8 (Rattus norvegicus) (UniProt P70579) (assay: rat mGluR8 modulators via GIRK flux, primary screen, cell-based, thallium flux, HTS (AID 488969)). Conditions: HEK293 rat mGluR8, GIRK (G protein-gated inwardly rectifying potassium channel) thallium flux, FluoZin2; at 10 µM; stronger effect = higher value; submaximal glutamate (EC20) added with thallium.
Sequence of UniProt P70579 (P70579 whole entry, looked up): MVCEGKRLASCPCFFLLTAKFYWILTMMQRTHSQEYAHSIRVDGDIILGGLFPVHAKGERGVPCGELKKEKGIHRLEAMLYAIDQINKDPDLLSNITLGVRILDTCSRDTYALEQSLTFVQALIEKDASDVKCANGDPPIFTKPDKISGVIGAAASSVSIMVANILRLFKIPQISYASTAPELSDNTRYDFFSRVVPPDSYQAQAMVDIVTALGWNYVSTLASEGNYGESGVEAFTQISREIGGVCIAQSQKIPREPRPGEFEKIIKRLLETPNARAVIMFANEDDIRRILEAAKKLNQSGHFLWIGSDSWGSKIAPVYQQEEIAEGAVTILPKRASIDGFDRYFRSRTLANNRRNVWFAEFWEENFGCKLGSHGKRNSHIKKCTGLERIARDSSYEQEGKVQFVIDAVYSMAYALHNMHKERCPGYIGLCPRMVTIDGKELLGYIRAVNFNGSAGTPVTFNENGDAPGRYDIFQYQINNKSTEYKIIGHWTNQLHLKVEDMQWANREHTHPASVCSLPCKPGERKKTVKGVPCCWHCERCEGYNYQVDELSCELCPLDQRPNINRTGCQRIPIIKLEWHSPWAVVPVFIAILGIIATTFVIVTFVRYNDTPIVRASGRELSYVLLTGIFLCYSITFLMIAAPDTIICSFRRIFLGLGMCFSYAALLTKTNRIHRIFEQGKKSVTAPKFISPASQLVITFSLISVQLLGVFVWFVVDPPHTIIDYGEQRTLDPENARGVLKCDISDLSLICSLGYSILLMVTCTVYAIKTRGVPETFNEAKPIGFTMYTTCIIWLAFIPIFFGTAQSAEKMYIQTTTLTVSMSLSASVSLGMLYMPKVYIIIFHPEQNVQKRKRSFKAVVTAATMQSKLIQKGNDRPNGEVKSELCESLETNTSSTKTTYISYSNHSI

Structure (SMILES) | z-score
CCN(CC(=O)Nc1cccc(OC)c1)c1ncnc2sc(C)c(C)c12 | -0.125
CC(=O)N1c2c(ccc3ccccc23)C(C)CC12CCCCC2 (centres undefined) | -0.635
CC1CCCN(S(=O)(=O)c2ccc(S(=O)(=O)NC(C)c3cccs3)cc2)C1 (centres undefined) | -0.136
O=C(O)CCCCCN1C(=O)C(=O)/C(=C(/O)c2ccccc2)C1c1ccccc1 (centres undefined) | -0.0105
COc1cccc(CNCCOCCO)c1OC | -0.424
O=C(NCCSCc1ccco1)Nc1cccc(Cl)c1 | 1.01
Cc1cc(-n2c(C)cc(C(=O)CSc3ccc4c(c3)OCCO4)c2C)no1 | -0.827
O=C(NC1CCCCC1)c1ccccc1NC(=O)C1CC(=O)N(c2ccc(Cl)cc2)C1 (centres undefined) | -0.252
Cc1oc2cc(OCC(=O)O)ccc2c(=O)c1Oc1ccccc1 | -0.155
COc1ccc(C(=O)CSc2nc3cccnc3n2C)cc1 | -0.0303
CC(C)N(C(=O)c1ccccc1-c1ccccc1)C(C)C | -0.685
CSc1nc2ccc(S(=O)(=O)NC3CCCCC3)cc2s1 | -1.02
COc1ccc(N=CC2=C(Nc3ccc(OC)cc3)c3c(C)nn(-c4ccccn4)c3CC2)cc1 | -0.399
Cc1cc(NS(=O)(=O)c2ccc(NC(=O)c3oc4ccccc4c3C)cc2)no1 | 0.155
COc1ccc(CCN2C(=O)CC(NCCc3ccc(S(N)(=O)=O)cc3)C2=O)cc1OC (centres undefined) | -0.0698
O=C(COc1ccccc1Cl)NCCC1=CCCCC1 | -0.184
Cc1oc(-c2cccc(Cl)c2)nc1CN1CCC(C(=O)NCc2ccco2)CC1 | active: -4.86
O=c1[nH]c2c(s1)C(c1ccccc1)C1C3CCC(C3)C1S2 (centres undefined) | -0.0102
Cn1cccc1/C=C1\SC(=S)N(NC(=O)c2ccccc2Cl)C1=O | -0.429
CCOc1c(C(=O)CC)cc2c(C)cc(=O)oc2c1C | 1.63
N#CC1(c2ccccc2)CCCN1C(=O)c1ccccc1Br (centres undefined) | -0.0974
Cc1cc(C)c(S(=O)(=O)NCc2ccc3c(c2)cc(C)n3C)c(C)c1 | 0.371
CCOC(=O)C1CN(S(=O)(=O)c2ccc(C)cc2)CCN1S(=O)(=O)c1ccc(C)cc1 (centres undefined) | 0.487
CC1CCC(NC(=O)c2cnccn2)CC1 (centres undefined) | 0.438
Cc1c(N=C/C=C/c2ccccc2)c(=O)n(-c2ccccc2)n1C | -0.166
COc1ccc(C2NCCc3c2[nH]c2ccccc32)cc1COc1ccc(F)cc1 (centres undefined) | 0.732
CCCCN(C)CCNC(=O)Cn1ncc2c(=O)oc3ccc(C)cc3c21 | -0.464

Structure (SMILES) | z-score
Nn1c(SCC(=O)N2CCOCC2)nnc1-c1ccccc1Cl | 0.0431
CCC1S/C(=N/N=C/c2cccs2)NC1=O (centres undefined) | -0.998
Cc1ccc(Oc2cnc3ccccc3n2)cc1 | -0.0185
COc1ccc2nc(N=Nc3ccc(N(C)C)cc3)sc2c1 | 0.141
O=C(N/N=C/c1ccccc1OC(=O)c1ccc2c(c1)OCO2)c1ccccc1 | -0.24
COc1ccc(OC)c2[nH]c(=O)c(CCNS(=O)(=O)c3ccccc3)cc12 | 0.221
CN(C)CCNC(=O)c1ccc(CS(=O)(=O)c2ccc(Br)cc2)o1 | 0.348
O=C(COC(=O)Cn1cnc2ccccc21)NCCc1ccc(Cl)cc1 | -0.0052
CCc1ccc(N=c2c([N+](=O)[O-])nn(-c3ccccc3)n2O)cc1 | -0.133
CCOC(=O)N1CCN(C(=O)c2ccccc2NC(=O)c2ccc(Br)cc2)CC1 | -0.377
COc1cc(CC(=O)OCC(=O)Nc2ccc(S(=O)(=O)N3CCCC3)cc2)cc(OC)c1OC | -0.47
COc1cccc(CN(C)C(=O)Nc2cccc(C(F)(F)F)c2)c1OC | -0.116
CC1CCN(S(=O)(=O)c2ccc3[nH]c(=O)cc(C(=O)O)c3c2)CC1 | 0.0457
N#C/C(=C\c1ccc(O)c(O)c1)S(=O)(=O)c1ccccc1 | -0.0806
CCOC(=O)C1CCCCN1Cc1cccc(C(F)(F)F)c1 (centres undefined) | -0.379
CC1=C(C(N)=O)C(c2ccccc2)n2nc(-c3cccc(C)c3)nc2N1 (centres undefined) | -0.467
COc1ccccc1NC(=O)CN1CCN(C(=O)c2ccco2)CC1 | -0.0879
Cc1ccc(O)c(-c2cc(C(=O)Nc3ccc(S(=O)(=O)N4CC(C)OC(C)C4)cc3)[nH]n2)c1 (centres undefined) | -0.527
Cc1ccc(CSc2nnc3c(n2)OC2(Nc4ccccc4-3)C(=O)Nc3ccc(F)cc32)cc1 (centres undefined) | 0.032
COC(=O)c1sc(NC(=O)c2cnccn2)c(C(=O)OC)c1C | 0.358
Cc1cc(C(=O)NCCCN2CCCC2=O)cs1 | 0.26
O=C(Nc1ccc(Cl)cc1C(=O)N1CCOCC1)c1cccc([N+](=O)[O-])c1 | 0.0715
O=C(CSc1nnc(C2CC2)n1-c1ccccc1)NCCc1ccc(F)cc1 | -0.612
Cc1cccc(NC(=O)CSc2nc(C)nc3c2c(=O)n(C)c(=O)n3C)c1 | 0.113
CC(C)NC(=O)c1ccc2c(c1)nnn2C | 0.0176
Cc1cc(NC(=S)NC(=O)CC(C)C)ccc1Br | 0.227
O=C(c1ccc(CN2CCc3ccccc3C2)cc1)N1CCN(c2ccc(F)cc2)CC1 | -0.314
